Hit rate of the full screen: of about 310,000 compounds, about 2,200 (0.71%) showed an effect of 50% or more. Effects have a minus sign here. The list shows a part of the results.
molecular target: human ether-à-go-go-related gene (hERG) potassium channel (human, UniProt Q12809); assay: primary screen, population patch clamp on CHO cells stably expressing hERG
Sequence (Q12809 whole entry, looked up): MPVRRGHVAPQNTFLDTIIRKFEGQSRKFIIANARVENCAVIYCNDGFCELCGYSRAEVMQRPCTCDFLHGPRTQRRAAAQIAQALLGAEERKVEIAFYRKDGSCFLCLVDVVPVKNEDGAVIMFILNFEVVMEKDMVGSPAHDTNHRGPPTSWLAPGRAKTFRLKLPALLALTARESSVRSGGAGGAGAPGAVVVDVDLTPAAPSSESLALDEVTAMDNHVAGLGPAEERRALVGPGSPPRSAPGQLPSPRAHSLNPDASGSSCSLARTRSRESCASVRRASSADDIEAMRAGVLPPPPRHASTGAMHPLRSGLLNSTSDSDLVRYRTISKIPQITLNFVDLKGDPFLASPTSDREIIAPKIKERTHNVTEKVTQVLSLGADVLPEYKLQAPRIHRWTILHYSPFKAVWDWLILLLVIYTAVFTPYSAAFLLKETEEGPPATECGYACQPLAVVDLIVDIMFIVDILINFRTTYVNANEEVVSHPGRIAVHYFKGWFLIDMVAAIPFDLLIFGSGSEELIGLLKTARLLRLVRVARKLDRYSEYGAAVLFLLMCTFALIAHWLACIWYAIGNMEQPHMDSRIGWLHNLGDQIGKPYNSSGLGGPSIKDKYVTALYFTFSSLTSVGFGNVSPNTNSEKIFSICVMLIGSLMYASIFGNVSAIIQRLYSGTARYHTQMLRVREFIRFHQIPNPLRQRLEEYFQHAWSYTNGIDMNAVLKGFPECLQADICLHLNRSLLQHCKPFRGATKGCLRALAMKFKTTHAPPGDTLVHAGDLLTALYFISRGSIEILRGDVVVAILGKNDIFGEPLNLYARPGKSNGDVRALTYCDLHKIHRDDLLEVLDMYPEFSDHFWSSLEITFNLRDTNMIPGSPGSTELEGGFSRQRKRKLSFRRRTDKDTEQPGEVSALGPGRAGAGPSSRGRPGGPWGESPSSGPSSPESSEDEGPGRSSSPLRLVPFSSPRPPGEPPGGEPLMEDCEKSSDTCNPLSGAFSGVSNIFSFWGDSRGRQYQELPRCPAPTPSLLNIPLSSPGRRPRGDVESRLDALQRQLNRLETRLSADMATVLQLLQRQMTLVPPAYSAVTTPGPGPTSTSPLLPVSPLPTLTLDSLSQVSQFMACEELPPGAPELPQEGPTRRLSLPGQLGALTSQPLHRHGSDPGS

`Cn1c(=O)c2c(nc(SCc3cccnc3)n2Cc2ccccc2)n(C)c1=O` was tested. Which “hERG current change (%, negative = inhibition) at 1uM” value did it give?
Its value is 7.43%.

`CN1C(=O)C(O)(C2COC(C)(C)CC2=O)c2cc(Br)ccc21` (stereo not drawn) was tested. Which “hERG current change (%, negative = inhibition) at 1uM” value did it give?
The value was -8.82%.

How did the “hERG current change (%, negative = inhibition) at 1uM” value turn out when `COc1ccccc1CC(=O)N1CCN(S(=O)(=O)c2ccccc2)CC1` was run?
Its value is 12.8%.

How did the “hERG current change (%, negative = inhibition) at 1uM” value turn out when `CN(C(=O)Cc1ccc(Cl)c(Cl)c1)C(CN1CCCC1)c1cccc(OCC(=O)O)c1.Cl` (stereo not drawn) was run?
Its value is 8.26%.

With `CCCCSc1nc(NCc2ccco2)c2c3c(sc2n1)COC(C)(C)C3` as the compound, how does the “hERG current change (%, negative = inhibition) at 1uM” value read?
The value was 1.11%.

For `CCOC(=O)N1CCC(N2CCCC(C(=O)c3cccc(OC(C)C)c3)C2)CC1` (stereo not drawn), which “hERG current change (%, negative = inhibition) at 1uM” value is on record?
Its value is -61.3%.

How did the “hERG current change (%, negative = inhibition) at 1uM” value turn out when `CCCCN(C(=O)C1CCC1)c1c(N)n(CCC)c(=O)[nH]c1=O` was run?
The value was 11.4%.

With `CCOc1ccccc1N(CC(=O)Nc1ccc(OC)cc1)S(=O)(=O)c1ccccc1` as the compound, how does the “hERG current change (%, negative = inhibition) at 1uM” value read?
Its value is 4.66%.

For `Cc1nn(-c2ccccc2)c(N2CCCC2)c1/C=N/Nc1ccc(S(N)(=O)=O)cc1[N+](=O)[O-]`, which “hERG current change (%, negative = inhibition) at 1uM” value is on record?
The value was 8.85%.

Which “hERG current change (%, negative = inhibition) at 1uM” value does the source give for `CCOc1ccccc1CN1CCN(C2CCSCC2)CC1CCO` (stereo not drawn) here?
Its value is -7.19%.

How did the “hERG current change (%, negative = inhibition) at 1uM” value turn out when `O=C1CCCCCN1CSc1nc2ccccc2s1` was run?
The value was 4.58%.

How did the “hERG current change (%, negative = inhibition) at 1uM” value turn out when `COc1cccc(NC(=O)CC2C(=O)NCCN2C(=S)Nc2ccc(F)cc2)c1` (stereo not drawn) was run?
The value was 14.9%.

Which “hERG current change (%, negative = inhibition) at 1uM” value does the source give for `Cc1cccc(C)c1NC(=O)NC1(C(=O)NCC2CCCO2)CCCCC1` (stereo not drawn) here?
Its value is 17.3%.

Which “hERG current change (%, negative = inhibition) at 1uM” value does the source give for `CCOC(=O)N1CCN(c2nc(=S)n(-c3ccccc3)c(C)c2C(C)=O)CC1` here?
The value was 8.83%.

For `Cc1nc2cc(N)ccc2n1C1CCCCC1.Cl`, which “hERG current change (%, negative = inhibition) at 1uM” value is on record?
Its value is 3.97%.

For `Cc1cc(C)cc(OCC(=O)OCC(=O)NC2CCCCCC2)c1`, which “hERG current change (%, negative = inhibition) at 1uM” value is on record?
Its value is 16.9%.

How did the “hERG current change (%, negative = inhibition) at 1uM” value turn out when `CCOC(=O)c1cc(OC(=O)c2ccccc2OC)n(-c2ccccc2)n1` was run?
Its value is -0.417%.

`Cc1ccc(S(=O)(=O)NC(C)C(=O)NCc2ccc(Cl)cc2)cc1` (stereo not drawn) was tested. Which “hERG current change (%, negative = inhibition) at 1uM” value did it give?
The value was 8.84%.

`CC1(C)CC(=O)C2=C(C1)N(c1ccccc1)C(N)=C(C#N)C2c1ccsc1` (stereo not drawn) was tested. Which “hERG current change (%, negative = inhibition) at 1uM” value did it give?
The value was 4.01%.

With `Nc1nc2nccc(-c3ccco3)n2n1` as the compound, how does the “hERG current change (%, negative = inhibition) at 1uM” value read?
The value was 10.7%.

`COc1ccccc1/C=N/NC(=O)c1nnn(-c2nonc2N)c1-c1ccccc1` was tested. Which “hERG current change (%, negative = inhibition) at 1uM” value did it give?
Its value is 10.6%.

How did the “hERG current change (%, negative = inhibition) at 1uM” value turn out when `CN(C)P(=O)(Nc1cccc2ccccc12)Nc1cccc2ccccc12` was run?
The value was 20%.

With `CCOc1ccccc1N1C(=O)CC(Sc2n[nH]c(-c3ccccc3)n2)C1=O` (stereo not drawn) as the compound, how does the “hERG current change (%, negative = inhibition) at 1uM” value read?
The value was 11.9%.

Which “hERG current change (%, negative = inhibition) at 1uM” value does the source give for `N#Cc1ccc(CSc2nc(N)cc(N)n2)cc1` here?
The value was 11%.

With `COc1cccc(NC(=O)NC2CCN(Cc3nnnn3Cc3ccc4c(c3)OCO4)CC2)c1` as the compound, how does the “hERG current change (%, negative = inhibition) at 1uM” value read?
Its value is 8.98%.

`OCCC1CN(Cc2cccn2-c2ccccn2)CCN1C1CCCC1` (stereo not drawn) was tested. Which “hERG current change (%, negative = inhibition) at 1uM” value did it give?
Its value is 3.68%.

Which “hERG current change (%, negative = inhibition) at 1uM” value does the source give for `COC(=O)c1ccc(CSc2nc3c(c(=O)n2-c2ccc(C)cc2)SCC3)o1` here?
Its value is 5.62%.

How did the “hERG current change (%, negative = inhibition) at 1uM” value turn out when `COc1cc(OC)cc(C(=O)NNC(=O)C2CCCC2)c1` was run?
Its value is 14.7%.

For `O=C(Cn1ccc([N+](=O)[O-])n1)N1CCCCC1`, which “hERG current change (%, negative = inhibition) at 1uM” value is on record?
Its value is -20.2%.

`CC(C)c1ccc(NS(=O)(=O)c2ccc(N3C(=O)CCC3=O)cc2)cc1` was tested. Which “hERG current change (%, negative = inhibition) at 1uM” value did it give?
The value was 10.6%.

Which “hERG current change (%, negative = inhibition) at 1uM” value does the source give for `COC(=O)c1ccc(Cn2nnc3c(=O)[nH]c(C4CCCN(S(=O)(=O)c5ccccc5Cl)C4)nc32)cc1` (stereo not drawn) here?
The value was 5.54%.

Which “hERG current change (%, negative = inhibition) at 1uM” value does the source give for `CCOc1cc(NC(=O)Nc2ccc(F)cc2)c(OCC)cc1NC(=O)CC` here?
Its value is 16%.

`CN(C)Cc1c(O)ccc2cc(-c3nc4ccccc4n3C)c(=O)oc12` was tested. Which “hERG current change (%, negative = inhibition) at 1uM” value did it give?
Its value is 13.9%.

With `Cc1cc(C)c2c(c1)/C(=N/NS(=O)(=O)c1ccccc1)CCC2` as the compound, how does the “hERG current change (%, negative = inhibition) at 1uM” value read?
The value was 6.95%.

How did the “hERG current change (%, negative = inhibition) at 1uM” value turn out when `N/C(=N\S(=O)(=O)c1ccc(Cl)cc1)N1CCOCC1` was run?
The value was 12.4%.

For `Brc1ccc(-c2noc(COc3ccc4c(c3)CCC4)n2)o1`, which “hERG current change (%, negative = inhibition) at 1uM” value is on record?
Its value is 5.71%.

With `CCCS(=O)(=O)N1CCN(C(=O)c2cccnc2)CC1` as the compound, how does the “hERG current change (%, negative = inhibition) at 1uM” value read?
The value was 11.2%.

`CCOC(=O)c1cn(-c2ccc(F)c(F)c2F)c2c(F)c(F)c(F)cc2c1=O` was tested. Which “hERG current change (%, negative = inhibition) at 1uM” value did it give?
Its value is 12.9%.

How did the “hERG current change (%, negative = inhibition) at 1uM” value turn out when `CSc1ccc(C2Nc3ccccc3-c3cc(C)nn32)cc1` (stereo not drawn) was run?
Its value is 1.55%.

`CCn1c(SCC(=O)N/N=C/C=C\c2ccccc2[N+](=O)[O-])nnc1-c1ccccc1` was tested. Which “hERG current change (%, negative = inhibition) at 1uM” value did it give?
The value was -12.5%.

`O=C(CCC1CCCN(c2ncccn2)C1)NCc1ccccc1F` (stereo not drawn) was tested. Which “hERG current change (%, negative = inhibition) at 1uM” value did it give?
The value was 8.16%.

How did the “hERG current change (%, negative = inhibition) at 1uM” value turn out when `CCCC(c1nnnn1Cc1ccc2c(c1)OCO2)N1CCC(C(N)=O)CC1` (stereo not drawn) was run?
The value was 10.3%.

For `O=C(/C=C/c1ccc(S(=O)(=O)N2CCOCC2)cc1)NCCc1ccc(C(F)(F)F)cc1`, which “hERG current change (%, negative = inhibition) at 1uM” value is on record?
The value was 7.7%.

Which “hERG current change (%, negative = inhibition) at 1uM” value does the source give for `CCc1nn(-c2cc(Oc3cccc4ccccc34)nc(-c3ccccc3)n2)c(N)c1C#N` here?
Its value is 19.1%.

Which “hERG current change (%, negative = inhibition) at 1uM” value does the source give for `COc1cc(OC)c2cc(C(=O)N[C@@H](Cc3ccccc3)C(=O)O)n(C)c2c1` here?
The value was 5.81%.

How did the “hERG current change (%, negative = inhibition) at 1uM” value turn out when `CCN(CC)CCN=Cc1c(O)n(CCc2ccccc2)c(=O)[nH]c1=O` was run?
Its value is 4.58%.

How did the “hERG current change (%, negative = inhibition) at 1uM” value turn out when `COc1ccc(CC(=O)Nc2cccc(C)n2)cc1OC` was run?
The value was 9.62%.

With `O=C(O)c1cc(N=Nc2c(O)[nH]c3ccc([N+](=O)[O-])cc23)ccc1Cl` as the compound, how does the “hERG current change (%, negative = inhibition) at 1uM” value read?
Its value is 13.3%.

For `O=C(O)C1(c2cccc(Cl)c2)CCC1`, which “hERG current change (%, negative = inhibition) at 1uM” value is on record?
The value was 13.3%.

How did the “hERG current change (%, negative = inhibition) at 1uM” value turn out when `O=C(Nc1ccc(OC(=O)c2ccncc2)cc1)c1ccncc1` was run?
The value was 14.8%.

Which “hERG current change (%, negative = inhibition) at 1uM” value does the source give for `Cc1ccc(N2CC(C(=O)Nc3ccc(S(=O)(=O)Nc4nccc(C)n4)cc3)CC2=O)cc1` (stereo not drawn) here?
Its value is 5.81%.

`Cc1cc(OCC(=O)Nn2cnnc2)c(C)cc1Br` was tested. Which “hERG current change (%, negative = inhibition) at 1uM” value did it give?
The value was 8.31%.

With `COc1c(C(=O)NNC(=O)c2ccccc2Cl)csc1Br` as the compound, how does the “hERG current change (%, negative = inhibition) at 1uM” value read?
Its value is -1.89%.

With `O=c1cc(O)nc(SCc2ccccc2)[nH]1` as the compound, how does the “hERG current change (%, negative = inhibition) at 1uM” value read?
Its value is 6.77%.

With `O=[N+]([O-])c1ccc(CSc2nnc(SCc3ccc(Cl)cc3)s2)cc1` as the compound, how does the “hERG current change (%, negative = inhibition) at 1uM” value read?
Its value is 2.25%.

For `CCC/C(=N\O)c1c[nH]c2ccccc12`, which “hERG current change (%, negative = inhibition) at 1uM” value is on record?
Its value is 11.3%.

Which “hERG current change (%, negative = inhibition) at 1uM” value does the source give for `CCN(c1ccccc1)S(=O)(=O)c1ccc(C(=O)N(C)CCc2ccc(OC)c(OC)c2)cc1` here?
The value was 11%.

From PMC4336329 (PLoS ONE, 2015)
